According to the supplement of paper PMC10126150:
Values marked as one replicate rest on one cluster of the flow cell; about a third of the high ones do not repeat.
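Also: ATP exposure 15 min at 22 °C before imaging.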

Each sequence was assayed on ATP (assay: switch fluorescence ratio, 500 uM ATP over buffer (Cy3 cluster intensity, sum of 5 cycles each) (fold (ratio)); higher = stronger signal-on switching upon ATP binding; sequences stand for … in TCGTCGGCAGCGTCAGATGTGTATAAGAGACAGTTTTTTTTTTTTTTTTTTTTTTTTT…TC). Conditions: aptamer strand: ATP DNA aptamer (quencher-CACCTGGGGGAGTATTGCGGAGGAAGG + anchor), 100 nM annealed; ATP concentration: 500 uM; one replicate.
Method in brief: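 Imaging in selection buffer was followed by imaging after 15 min with 500 uM ATP at 22 °C, for Cy3-labelled switching-strand clusters annealed to 100 nM quencher-labelled ATP aptamer on a modified Illumina MiSeq flow-cell. Five of these buffer/ATP cycles ran, separated by NaOH stripping and re-annealing. The fluorescence ratio per cluster is summed target-cycle over summed buffer-cycle Cy3 intensity, averaged per switch-domain sequence; clusters outside 100-1000 RFU were removed.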
For AAACTGTGCG, the switch fluorescence ratio was 1.02. Sequence AAGATAGTAG has a switch fluorescence ratio of 0.982. Work on TTATTACCTG yielded a switch fluorescence ratio of 1.02. ATGAAACGCC showed a switch fluorescence ratio of 1.09. Sequence GCTGCCAGCG has a switch fluorescence ratio of 0.977. TTTAGGAAAT gave a switch fluorescence ratio of 1.07. With ACCCCTACCT the switch fluorescence ratio was 1.18. With ATGAACTGGT the switch fluorescence ratio was 1.05. TGTACCGGGG gave a switch fluorescence ratio of 1.11. Sequence CCCAGGGAAA has a switch fluorescence ratio of 1.25. In the case of GGGATAGCGG, the switch fluorescence ratio is reported as 0.948. TACAGAGGGT gave a switch fluorescence ratio of 1.01. Work on GTGGCTCCG yielded a switch fluorescence ratio of 1.07. GACGATATGA was tested, and the switch fluorescence ratio was 1.1. AACGGCAGAC was tested, and the switch fluorescence ratio was 1.52. For GATGCTTCTC, the switch fluorescence ratio was 1.04. TGCACTGGTT showed a switch fluorescence ratio of 1.02. Sequence TTAAGTTAAC has a switch fluorescence ratio of 1.13. For GCCATTTGCA, the switch fluorescence ratio was 1. TTATTATTA showed a switch fluorescence ratio of 1.02. CCTGATTTAT was tested, and the switch fluorescence ratio was 1.02. With CGCCGCATTT the switch fluorescence ratio was 3.43. With GCTAGACTTC the switch fluorescence ratio was 1.06. With GAATATATTC the switch fluorescence ratio was 0.985. TAGGGTCAGG was tested, and the switch fluorescence ratio was 0.961. For TTGTAGATAC, the switch fluorescence ratio was 1.08. With GTATGCGGCA the switch fluorescence ratio was 1.01. CTATTATGGC gave a switch fluorescence ratio of 1.08. Sequence ATTCTCAGTA has a switch fluorescence ratio of 0.939. TGGTGAGCAC showed a switch fluorescence ratio of 1.07. CGCCACAAGG was tested, and the switch fluorescence ratio was 1.23. In the case of TATGATGCT, the switch fluorescence ratio is reported as 0.949. Sequence CTAACGGCTT has a switch fluorescence ratio of 1.01. In the case of CACCAAAGAA, the switch fluorescence ratio is reported as 1.06. Work on TCTAGCCTCG yielded a switch fluorescence ratio of 0.986. CACAGGATAG showed a switch fluorescence ratio of 1.06. In the case of GGACCGCATA, the switch fluorescence ratio is reported as 3.38. TAGCGTGCAT showed a switch fluorescence ratio of 1.03. For CTTACGGTTC, the switch fluorescence ratio was 1.03. In the case of GACAAAAGC, the switch fluorescence ratio is reported as 1.05. TCATATAATC was tested, and the switch fluorescence ratio was 0.996. AGTTCGATC gave a switch fluorescence ratio of 0.948. Work on CTCAACACTG yielded a switch fluorescence ratio of 1.1. GCGTGGGGAT gave a switch fluorescence ratio of 1.03. With GATAAGTACC the switch fluorescence ratio was 1.44. GATCTCGCCG showed a switch fluorescence ratio of 0.961. With TTGATTTAGA the switch fluorescence ratio was 0.998. With ATTTTCTCCA the switch fluorescence ratio was 1.02. In the case of TGCAAGGATA, the switch fluorescence ratio is reported as 0.983. CGTTGGGAGA was tested, and the switch fluorescence ratio was 0.973. GGATCTAAGC gave a switch fluorescence ratio of 1. For CATTATACCT, the switch fluorescence ratio was 1.28. ATTTTGTT was tested, and the switch fluorescence ratio was 1.01. Sequence CCCCTAATCG has a switch fluorescence ratio of 1.02. Work on CGGCTAGATG yielded a switch fluorescence ratio of 0.968. AGCGGGACTG gave a switch fluorescence ratio of 1.01. For ACTTTGTTG, the switch fluorescence ratio was 0.988. Sequence GGCTGCTGGG has a switch fluorescence ratio of 0.945. Work on AAATGTCACT yielded a switch fluorescence ratio of 1.01. Work on ATATTAAAGA yielded a switch fluorescence ratio of 0.987. With GGTTTAACCA the switch fluorescence ratio was 1.01. GGTATTCCAT was tested, and the switch fluorescence ratio was 1.03. AAACACCCAG gave a switch fluorescence ratio of 1.15. Work on TGAATTCCGA yielded a switch fluorescence ratio of 1.04. Work on TCCTTTGTTG yielded a switch fluorescence ratio of 0.998. CCAATTTTTG showed a switch fluorescence ratio of 1. TGAAGGTCTA gave a switch fluorescence ratio of 1. Work on TGTGCTAGCA yielded a switch fluorescence ratio of 1.01. Sequence TCCGAGCGAT has a switch fluorescence ratio of 1.08. ACCAATATAG showed a switch fluorescence ratio of 1.06. Sequence GAGCTTCAGT has a switch fluorescence ratio of 1.02. In the case of GAGTTGCAG, the switch fluorescence ratio is reported as 0.94. GGATAACATT was tested, and the switch fluorescence ratio was 0.992. CTTACTAGGA gave a switch fluorescence ratio of 0.999. For AGTAGGACTT, the switch fluorescence ratio was 0.978. For CAGGGTCATA, the switch fluorescence ratio was 0.968. AGAGTCCCGG was tested, and the switch fluorescence ratio was 1.02. CCAGGCGGAC gave a switch fluorescence ratio of 1.5. TCGTGTGGCT gave a switch fluorescence ratio of 0.946. TTAATACGCC showed a switch fluorescence ratio of 1.76. Work on CTGTGCAGC yielded a switch fluorescence ratio of 1.13. Sequence AGTCTCTATT has a switch fluorescence ratio of 1. For CTCGGTGATG, the switch fluorescence ratio was 0.921. Work on TCCGTGTAGC yielded a switch fluorescence ratio of 1.06. ACGGATCGTA showed a switch fluorescence ratio of 0.958. In the case of CGAATATTCA, the switch fluorescence ratio is reported as 1.01. Sequence CCGAAGGTAT has a switch fluorescence ratio of 1.1. For ATTTATTAGT, the switch fluorescence ratio was 1.02. CCAATACGAA showed a switch fluorescence ratio of 2.18. For CGGATCACGG, the switch fluorescence ratio was 0.975. ATCAAGGT gave a switch fluorescence ratio of 1.01. CCGCATAAAA gave a switch fluorescence ratio of 3.8. TTGAAGGTAA showed a switch fluorescence ratio of 4.92. Work on AGAACCCGAC yielded a switch fluorescence ratio of 1.5. AGCGAAAGGG showed a switch fluorescence ratio of 1.01. AGCGCCACGT was tested, and the switch fluorescence ratio was 0.968. AGATGAAATT showed a switch fluorescence ratio of 0.991. TTGGCTCTG showed a switch fluorescence ratio of 0.971. In the case of CAAAAACACT, the switch fluorescence ratio is reported as 1.02. Sequence TGGCCGGGA has a switch fluorescence ratio of 1.01. TGCTCGCTCT showed a switch fluorescence ratio of 0.999. Sequence ATGGTTCTGC has a switch fluorescence ratio of 1.11. Work on TCATCAATAG yielded a switch fluorescence ratio of 1.36. In the case of TGGTATCCTG, the switch fluorescence ratio is reported as 1.02. With AAGGTCTGCG the switch fluorescence ratio was 1.07. GTGGACAGCT gave a switch fluorescence ratio of 1.01. With GTGGTAGTGT the switch fluorescence ratio was 1.01. AGAGAACACA was tested, and the switch fluorescence ratio was 1.09. GCTACCATGC was tested, and the switch fluorescence ratio was 1.07. In the case of ATGGGGTAAG, the switch fluorescence ratio is reported as 1.05. TCTTCAGTGT gave a switch fluorescence ratio of 1.02. With CACGAGTCGC the switch fluorescence ratio was 0.988. In the case of CGCGTGGAGT, the switch fluorescence ratio is reported as 1.08. In the case of AACCCAAATT, the switch fluorescence ratio is reported as 1.03. TAAAGGTGAG showed a switch fluorescence ratio of 0.938. CTCTAAGGCC was tested, and the switch fluorescence ratio was 0.995. For CCGTTTACGT, the switch fluorescence ratio was 1.03. TGACTCAGTG was tested, and the switch fluorescence ratio was 1.05. In the case of CGATGCGGA, the switch fluorescence ratio is reported as 1.09. In the case of CTTCGGTATT, the switch fluorescence ratio is reported as 1.01. Work on GCGGGTAACT yielded a switch fluorescence ratio of 0.966. With GAGATGAGA the switch fluorescence ratio was 1. ACCTGAAAAT gave a switch fluorescence ratio of 1.02. Work on CTTTCTCGTC yielded a switch fluorescence ratio of 1.04. Sequence CTGCCGCGGT has a switch fluorescence ratio of 1.54. Work on TACGTTAGGG yielded a switch fluorescence ratio of 1.08. Sequence TCATTGATTA has a switch fluorescence ratio of 1. TTAGTGCCCG was tested, and the switch fluorescence ratio was 1.04. CATCCTCACT was tested, and the switch fluorescence ratio was 1.22. For TACCACCCCA, the switch fluorescence ratio was 1.16. ATGCGGGACA showed a switch fluorescence ratio of 1. Work on TGGGTTCCGT yielded a switch fluorescence ratio of 0.991. TGAGATAGCA was tested, and the switch fluorescence ratio was 0.963. For TACGAAGCGT, the switch fluorescence ratio was 1.24. TCGCCCTGCT gave a switch fluorescence ratio of 0.968. Sequence TGATGATAGG has a switch fluorescence ratio of 1. Work on TCGTGTAGGA yielded a switch fluorescence ratio of 1.01. Sequence AAGGAGTATG has a switch fluorescence ratio of 0.957. Sequence ATCCTCTTTT has a switch fluorescence ratio of 1. Work on AGCGGAACGG yielded a switch fluorescence ratio of 1.01. CCGTTTAGTT showed a switch fluorescence ratio of 1.06. AAACTGTCG gave a switch fluorescence ratio of 0.973. For CCCCTTCCAT, the switch fluorescence ratio was 0.955. For CGATCAGTGT, the switch fluorescence ratio was 0.975. For CCTCAATGTA, the switch fluorescence ratio was 1.81. For TGCCATGAGC, the switch fluorescence ratio was 0.974. GGGTGCCACG was tested, and the switch fluorescence ratio was 1.01. In the case of TCTACTTAAA, the switch fluorescence ratio is reported as 1.01. Sequence ATTACTAGG has a switch fluorescence ratio of 0.99. Work on CTTCCAGGTT yielded a switch fluorescence ratio of 1.27. ACTTAATTCT showed a switch fluorescence ratio of 1.03. Work on GACCAACGTG yielded a switch fluorescence ratio of 0.995. Work on TCTACATAAA yielded a switch fluorescence ratio of 1.01. With GACTCTGCTA the switch fluorescence ratio was 6.12. For GCGGTTGCAG, the switch fluorescence ratio was 1.02. AATGGATTGA was tested, and the switch fluorescence ratio was 1.01. For TTTTTCGAGT, the switch fluorescence ratio was 0.919.
